{
  "source": "the supplement of paper PMC11417369",
  "note": "The other results are listed elsewhere or left out.",
  "data": [
    {"test_system": "PfHDP1 homeodomain (GST-tagged)", "test": "gcPBM binding intensity (ln(normalized median fluorescence intensity)); higher = stronger DNA binding", "outline": "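GST-tagged P. falciparum DNA-binding domains produced in E. coli were incubated for 1 h on an Agilent 4 × 180k array of primer-extended double-stranded 36-bp intergenic genomic probes with negative controls. Binding intensity is the highest Masliner-normalised natural-log median intensity across replicate spots of either probe orientation, with bound protein detected by Alexa488 anti-GST antibody at 488 nm.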", "values": [
      {"sequence": "ATATATATATATATATGTACATATATTTATTTATTG [XGTACX_site6267]", "gcPBM binding intensity (ln)": 9.33},
      {"sequence": "TAATAATTTATAATAGTGCATTTGATTTTAAAAATA", "gcPBM binding intensity (ln)": 8.18},
      {"sequence": "TTTTTATGGTAAATAAAAATATCTCCCTCCTTAATT [CACACA_negctrl_site1352]", "gcPBM binding intensity (ln)": 6.01},
      {"sequence": "TTAAAAAAATATAATACACACCAAAAATATGCACAT [CACACA_site5209]", "gcPBM binding intensity (ln)": 10.3},
      {"sequence": "CATATATAACAATTCTCACACATAAAAAAAAAAAAT [CACACA_site4564]", "gcPBM binding intensity (ln)": 6.71},
      {"sequence": "AAAATAAAATATTTCTGTACTTATAACTATTCTATA [XGTACX_site8007]", "gcPBM binding intensity (ln)": 6.13},
      {"sequence": "ATAAAATGATAAATTTGTACACAAAAAAAAAAAAAA [XGTACX_site964]", "gcPBM binding intensity (ln)": 6.16},
      {"sequence": "GGGTATACAAATAAACGTACAAACTCATAAAAAAAA [XGTACX_site3191]", "gcPBM binding intensity (ln)": 6.33},
      {"sequence": "TAAATAAGCACATACACACATACATACATACATAAA [CACACA_site4017]", "gcPBM binding intensity (ln)": 6.95},
      {"sequence": "AACCCCGTGGAAATATGTACATATAAATATATAAAT [XGTACX_site2094]", "gcPBM binding intensity (ln)": 7.04},
      {"sequence": "AAATAAATCTTATGCACACAAATAATTAATTAAACA [CACACA_site1693]", "gcPBM binding intensity (ln)": 10.7},
      {"sequence": "TATTTTTTTCTTACATACTAATTTGGTACTCACATA [TGCATGCA_negctrl_site81]", "gcPBM binding intensity (ln)": 6.75},
      {"sequence": "AGAGTTCTCATATGCACACAAAAAACTTTCATTTAT [CACACA_site45]", "gcPBM binding intensity (ln)": 10.2},
      {"sequence": "TTTTTGCCATATTACACACACACATGTAAACCCCCT [CACACA_site1647]", "gcPBM binding intensity (ln)": 7.77},
      {"sequence": "GTGAAATATGCAAACACACACGAGAAAAATGTATAT [CACACA_site7488]", "gcPBM binding intensity (ln)": 6.99},
      {"sequence": "CAAAACAAAACGTATGCACACAATTAATATATTAAA [CACACA_site3405]", "gcPBM binding intensity (ln)": 9.45},
      {"sequence": "CATATAAAAATGTGCACACACACACCCATATATATT [CACACA_site1526]", "gcPBM binding intensity (ln)": 10.5},
      {"sequence": "AAAATTAATAAATAAACACACATATATATATATATA [CACACA_site2598]", "gcPBM binding intensity (ln)": 9.33},
      {"sequence": "TTGATTACACTGAAGTGTACATATATATATATATAT [XGTACX_site3532]", "gcPBM binding intensity (ln)": 9.42},
      {"sequence": "AATATCCACATTAGGAGTACACAGCTAACTGTTTGA [XGTACX_site3357]", "gcPBM binding intensity (ln)": 6.28},
      {"sequence": "AAATAATAAAAAAAATGTACACGTAAATATTATATT [XGTACX_site8125]", "gcPBM binding intensity (ln)": 6.99},
      {"sequence": "AAAAAAAAAAGAAACACACACATTTGTATATAATAT [CACACA_site2078]", "gcPBM binding intensity (ln)": 6.77},
      {"sequence": "TTTTATATAAAATCGTGTACATACCATTTCCTATTA [XGTACX_site5159]", "gcPBM binding intensity (ln)": 6.77},
      {"sequence": "TAGATAAACAAGAAATGTACAAACGTAAATATGTTC [XGTACX_site2373]", "gcPBM binding intensity (ln)": 6.18},
      {"sequence": "ATATTTTTTTTTTCGTGTACGCATAAATATATCTAA [XGTACX_site3360]", "gcPBM binding intensity (ln)": 6.64},
      {"sequence": "TAAAAAATAAATATATGTACATATTTATTTTTTTTT [XGTACX_site850]", "gcPBM binding intensity (ln)": 6.19},
      {"sequence": "ATTGAATTCCAACTGGTGCACCAGTAAGATTGAAAA [GTGCAC_site9895]", "gcPBM binding intensity (ln)": 10.1},
      {"sequence": "ATAAATAAGATATATACACACATATCTATACATATT [CACACA_site6369]", "gcPBM binding intensity (ln)": 6.56},
      {"sequence": "ATTTAAGAAAAAAGTTGTACTTATTTATTTTTATTT [XGTACX_site5561]", "gcPBM binding intensity (ln)": 5.83},
      {"sequence": "GGCTAAAAGGGGCACACACACAAAAAAAAAAAAAAA [CACACA_site3288]", "gcPBM binding intensity (ln)": 6.57},
      {"sequence": "AATCCACTTTTTTATGTTATACAATATAAATTAAAT [XGTACX_negctrl_site446]", "gcPBM binding intensity (ln)": 6.71},
      {"sequence": "ATATATTATTTCTAGTGTACATACCCATATATAATA [XGTACX_site8902]", "gcPBM binding intensity (ln)": 7.13},
      {"sequence": "TATTGATTTATAAACACACACTCGAAGATGTTTAAC [CACACA_site4760]", "gcPBM binding intensity (ln)": 6.56},
      {"sequence": "AAGAAAAAAGTTATTAGTACACATTATAATAAAAAG [XGTACX_site3527]", "gcPBM binding intensity (ln)": 6.66},
      {"sequence": "AATACTAAAAAGTGTACACATACATAAAAAATTGCA [CACACA_site5620]", "gcPBM binding intensity (ln)": 7.24},
      {"sequence": "CATTATGTTGTAAATACACACATACATATACATACA [CACACA_site8143]", "gcPBM binding intensity (ln)": 6.76},
      {"sequence": "TATATATATGTAAATCGTACAAATTATATATATCAT [XGTACX_site2821]", "gcPBM binding intensity (ln)": 6.25},
      {"sequence": "TATATCTCATAGTATACACACACACCCACCCACATA [CACACA_site8513]", "gcPBM binding intensity (ln)": 7.7},
      {"sequence": "TAATTTTCTTTTTATCGTTTTTTTTTTTTTTTTTTT [XGTACX_negctrl_site432]", "gcPBM binding intensity (ln)": 6.62},
      {"sequence": "GGGTTTTTTATTAATACATGCATGGAAACGCACTAT [TGCATGCA_site1000]", "gcPBM binding intensity (ln)": 8.29},
      {"sequence": "AAATTCATAAAAATATTTTATAATTATATATAGAAT [TGCATGCA_negctrl_site343]", "gcPBM binding intensity (ln)": 6.34},
      {"sequence": "ATATATATATAATTTGTACACACAAATATGCATATA [CACACA_site9136]", "gcPBM binding intensity (ln)": 8.57},
      {"sequence": "AAGAAAAACAATGAGATAAAGAAGAGAAAATATGTC [TGCATGCA_negctrl_site415]", "gcPBM binding intensity (ln)": 6.88},
      {"sequence": "ATAAATATGTAAAAAACATGCAAAAAATTAAAGACA [TGCATGCA_site912]", "gcPBM binding intensity (ln)": 7.22},
      {"sequence": "TTATTAAATAAAATCATGCACACAATATATATTTTA [CACACA_site2496]", "gcPBM binding intensity (ln)": 8.65},
      {"sequence": "GTTATTAAACAGAAAAGTACATATGTATATTAAAAT [XGTACX_site3724]", "gcPBM binding intensity (ln)": 6.8},
      {"sequence": "TAAAAAAAAAGAAGCTGTACTAAAAAATTTATATTA [XGTACX_site7408]", "gcPBM binding intensity (ln)": 5.82},
      {"sequence": "TTATTACATAACAATATACACACTATTGATTAAAGA [CACACA_site2933]", "gcPBM binding intensity (ln)": 6.56},
      {"sequence": "GGAAACAAAAAATATATACACACTAAACATAAAAAA [CACACA_site20]", "gcPBM binding intensity (ln)": 6.86},
      {"sequence": "TCATAGTAGAAACACACACACACACCCATATATATA [CACACA_site1737]", "gcPBM binding intensity (ln)": 6.88},
      {"sequence": "AACGCACATATATTTATGTATATATATATATATATA [GTGCAC_negctrl_site478]", "gcPBM binding intensity (ln)": 9.22},
      {"sequence": "ACATATATTTTTTTTTGTACATATAAATATATATAT [XGTACX_site6491]", "gcPBM binding intensity (ln)": 7.43},
      {"sequence": "TATTTTTTTTTATTTTTTTTTATTTTGTTTTTTTAT [TGCATGCA_negctrl_site315]", "gcPBM binding intensity (ln)": 6.33},
      {"sequence": "ATTAAAATATAAGTCACACATATATATATATATATA [CACACA_site6145]", "gcPBM binding intensity (ln)": 9.49},
      {"sequence": "ATATATTTTCCTTCAAGTACACATATAAATGTGTAT [XGTACX_site6633]", "gcPBM binding intensity (ln)": 6.66},
      {"sequence": "AAAAAAATAATCATCACACACGGAGAATGTCCAATA [CACACA_site5305]", "gcPBM binding intensity (ln)": 6.31}
    ]}
  ]
}
